Measured values reported in paper PMC10726135.
Some of the results follow. At the low end of the ranking the order means little. Measured with an extract: partners may take part in the binding.

These sequences were tested against T1, HNF4alpha2 (COS-7 nuclear extract) (UniProt P41235) (assay: protein-binding microarray). Conditions: COS-7 nuclear extract on double-stranded Agilent 4x180k PBM; binding buffer, salt, pH and temperature not given; high values mean tight binding; double strand, one strand shown; sequences stand for … in …GCCTAGGGAGATTAGAGTATCGGTCGA.
T1 sequence: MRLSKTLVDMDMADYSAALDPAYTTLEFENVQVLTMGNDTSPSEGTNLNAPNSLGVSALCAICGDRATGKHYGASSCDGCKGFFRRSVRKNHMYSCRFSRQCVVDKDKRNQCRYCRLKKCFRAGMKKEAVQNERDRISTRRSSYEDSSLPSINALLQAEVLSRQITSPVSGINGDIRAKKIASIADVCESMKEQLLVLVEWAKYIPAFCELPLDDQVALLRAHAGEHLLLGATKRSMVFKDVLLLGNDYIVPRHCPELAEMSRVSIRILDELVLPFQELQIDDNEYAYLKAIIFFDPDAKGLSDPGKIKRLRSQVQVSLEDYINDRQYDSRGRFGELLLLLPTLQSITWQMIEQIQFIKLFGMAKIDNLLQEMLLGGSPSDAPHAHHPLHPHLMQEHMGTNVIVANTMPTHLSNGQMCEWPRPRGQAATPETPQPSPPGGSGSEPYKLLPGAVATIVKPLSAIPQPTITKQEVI
With TGGCCTTAGGGTGAGGCATCTGGACCATTG the binding signal (log2 normalized intensity) was 1.58. CCTCAGGCCTTTGGACCCAGACTGAATCAC was tested, and the binding signal (log2 normalized intensity) was 2.64. Work on AGAGAAACCTGGCTGCGAGTCCCTGCTGTG yielded a binding signal (log2 normalized intensity) of -1.17. With AATTTGATCCAGTGTGCAAATGTGTCTTTT the binding signal (log2 normalized intensity) was 1.68. With ATAGGAGGATTTTATTCAGGTGGCCACTGG the binding signal (log2 normalized intensity) was 1.03. In the case of ACCTAGAGGCCTTTCTCTCTGCACGAAAAA, the binding signal (log2 normalized intensity) is reported as -1.04. With GACCCGTGAATCCTTAAGATTCCTGCTCTA the binding signal (log2 normalized intensity) was -1.16. TTTCAACATTTAACTTAACCACTCAATCAG was tested, and the binding signal (log2 normalized intensity) was -1.18. With TGCAGGGATGGACTTTAATCTCCAAGTAAC the binding signal (log2 normalized intensity) was 4.59. ACGGGTAAATCCGGTTTGGGGACTTCTCCC was tested, and the binding signal (log2 normalized intensity) was -0.756. Work on CGGGGGCAAGGGTCAGAGTAAAGCTCCAGT yielded a binding signal (log2 normalized intensity) of 3.73. AGGGAGGGGAGAGGGGGTTAAAGGTTATTT showed a binding signal (log2 normalized intensity) of 4.97. TTGGCCTGTTTGCTGAAGGCCATGCATGGT gave a binding signal (log2 normalized intensity) of 0.988. CTGGGGTTAGCCAAACAAATGGAGAAGGTC gave a binding signal (log2 normalized intensity) of 0.627. With AATGAAAGGTTAACCTGCTGGTTTACAACA the binding signal (log2 normalized intensity) was -0.835. Work on AGTTGCTCAAACCAACATTATTAGCAGCAG yielded a binding signal (log2 normalized intensity) of -1.18. TATGTTAATGGCAGAATCAAAGGTCAAAAT gave a binding signal (log2 normalized intensity) of 4.54. Sequence TTGCTATGCAAACAGACTGGCGGCGTTTCG has a binding signal (log2 normalized intensity) of -1.17. In the case of CTGGTGTAGTGGGGAGGGCATGGACTTTGG, the binding signal (log2 normalized intensity) is reported as 5.45. For GAGAGGACTACAGGCCCTGCATTTTTAGGC, the binding signal (log2 normalized intensity) was -1.12. With GCGCAAACTATCTAAACAGACTAGTACAAC the binding signal (log2 normalized intensity) was -0.962. Work on GCCCTGAGCCAAGGGAGCACAACCCGGGCG yielded a binding signal (log2 normalized intensity) of -1.06. TTAAGATGATATAGCTGTTCATTAGACTCA showed a binding signal (log2 normalized intensity) of 0.162. CTTTCCTGGTGCCTCCTTATCTCCCCAACT gave a binding signal (log2 normalized intensity) of 3.39. For GCCAATCTGCTTAAAGGCAAAGTCCAGAAC, the binding signal (log2 normalized intensity) was 3.82. In the case of CAGTCATGGAGGCATCATAAACTCCAACTC, the binding signal (log2 normalized intensity) is reported as -0.992. Sequence AAGCCTTTGAACTGTGTTGCAAATTATTAC has a binding signal (log2 normalized intensity) of 0.444. With CCTGGTAAGTTCCACTGCATCAGTGCTGAC the binding signal (log2 normalized intensity) was -1.12. GGAGTCCAGAGTTCAGGTAGAGGGATTCCC gave a binding signal (log2 normalized intensity) of 1.68. Sequence GACGATGGTTTTCCAATCTGGTGAAAGATG has a binding signal (log2 normalized intensity) of 1.05. In the case of GTCAACTCCTCCAAGCCACCTTCCCGGCCT, the binding signal (log2 normalized intensity) is reported as -0.918. In the case of GACTGCAAAATAGACAAACAGCAATAGCAA, the binding signal (log2 normalized intensity) is reported as -1.15. GGCTTCCATTCTCAGGCAGATGGGCAGCAC was tested, and the binding signal (log2 normalized intensity) was -1.27. With AGGGAGGTAGTCGCCCTCCGTCGTGGCCTG the binding signal (log2 normalized intensity) was -1.09. GGTAAAATAAGGCTGCGACCTGCTGGGCTG gave a binding signal (log2 normalized intensity) of -1.03. TCCAGAAAGCAACAAAAACCAAATCACAAT was tested, and the binding signal (log2 normalized intensity) was -1.12. CTGGAGATAATAGTGGCTGAAAGTACTGGC gave a binding signal (log2 normalized intensity) of -0.923. Work on GGGCACTGCCCTTTGGAACCTGCCCTCTGT yielded a binding signal (log2 normalized intensity) of 4.63. In the case of ATGCCCGGCCGACGTGACCCGCCGCCCGAG, the binding signal (log2 normalized intensity) is reported as 1.38. TGGGTATAGGCGCGCGTGTGTGTGTGTGTG was tested, and the binding signal (log2 normalized intensity) was 3.14. TCCAGAAATACTTGTTATATTGGATAGTGC was tested, and the binding signal (log2 normalized intensity) was 0.997. Work on AGATGGTCAGTGAACTGTGGTTGACAGGCA yielded a binding signal (log2 normalized intensity) of 1.36. TACCCTACCTGTTTGCAAGCCCAAAGCCCC gave a binding signal (log2 normalized intensity) of 2.55. In the case of GCATTCCAAGTGAGTAAGGAAAGCCACTTC, the binding signal (log2 normalized intensity) is reported as -1.13. CATGCCAGGATGGGCTCCTGCCTTGGAGAA was tested, and the binding signal (log2 normalized intensity) was -1.11. Work on TCAGCCTGCAAGTTAGGACAGCCCCAGGCC yielded a binding signal (log2 normalized intensity) of -1.03.
